Measured values from PubChem BioAssay AID1347073 (National Center for Advancing Translational Sciences (NCATS), 2019).
Hit rate of the full screen: of about 45,000 compounds, about 200 (0.44%) were called active. Another 7% or so got no clear call; they are omitted. The call rests on the fitted dose curve; in most records, active means well fitted activation curve with a large enough effect; inconclusive means small, poorly fitted or top-dose-only effect; inactive means no such curve, though single readings can be large or run the other way. Some of the results follow.

Assay: qHTS of TDP-43 Inhibitors: NCGC Sytravon Library Screen; further: 0% is about no effect; nearly all actives have a fitted effect of over 55% in size
Conditions: yeast TDP-43 toxicity rescue, BacTiter-Glo growth, 24 h; series mostly up to 46.1 µM; growth rescue (activation): at the top concentration
Outline: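 TDP-43-expressing yeast, pregrown in raffinose, seeded at OD600 0.02 in galactose medium with compound for 24 hr at 30 deg C. Growth read by BacTiter-Glo luminescence, so rescue of toxicity appears as activation.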

| SMILES | growth rescue (activation) |
| --- | --- |
| COCC(C)NC(C(=O)Nc1cccc(C(C)=O)c1)c1ccccc1 (centres undefined) | inactive: -1.63% |
| CC1CCCC(C)N1C(=O)COc1ccc(F)cc1 (centres undefined) | inactive: 17.5% |
| Fc1cccc(Cc2noc(CN3CCCN(C4Cc5ccccc5C4)CC3)n2)c1 | inactive: -2.64% |
| O=S(=O)(NC1CCCCC1Sc1ncccn1)c1ccccc1 (centres undefined) | inactive: 8.2% |
| CCNC(=S)Nc1cccc(S(=O)(=O)Nc2ccccc2OC)c1 | inactive: -33% |
| Cc1nc(NCCc2ccccc2)sc1C(=O)N(C)C | inactive: 15.4% |
| O=c1cc(O)nc(-c2ccc(Cl)cc2)s1 | inactive: -0.639% |
| COc1cc(/C=N/NC(=O)CNC(=O)c2cccs2)ccc1O | inactive: -1.7% |
| COc1cccc(O)c1CN1CCC(C(=O)Nc2ccc(-c3cccc(C)c3)cc2)CC1 | inactive: 16.2% |
| NC(=O)c1nnn(-c2ccccc2)c1N | inactive: -30.2% |
| Cc1c(NC(=S)NC(=O)c2ccc(-c3ccc(Cl)cc3)o2)cccc1C(=O)O | inactive: 8.53% |
| CCc1ccc(CN(C)CC(O)COc2cccc3ccccc23)cc1 (centres undefined) | inactive: -3.95% |
| CCCCN(C(=O)c1ccc(C#N)cc1)c1c(N)n(CCC)c(=O)[nH]c1=O | inactive: -7.31% |
| COc1ccc(NC(=O)Nc2cccc(F)c2)c(OC)c1 | inactive: -7.36% |
| CCc1ccc(NC(=O)C(=O)N/N=C(\C)CC(=O)NCCOC)cc1 | inactive: 15.3% |
| O=C(c1cc(-c2cccc(O)c2)on1)N1CCCC1 | inactive: -11.2% |
| CCOCCCNC(=O)CCc1ccc(-n2cnc3cccnc32)cc1 | inactive: -4.59% |
| COc1cc(/C=C/C(=O)NC(C)C2CC3CCC2C3)cc(OC)c1OC (centres undefined) | inactive: 10.1% |
| CCn1c2ccccc2c2nnc(SCC(=O)c3c(N)n(C)c(=O)n(C)c3=O)nc21 | inactive: 11.4% |
| CC(C)CNC(=O)c1nn(Cc2ccccc2)c(=O)c2ccccc12 | inactive: 6.21% |
| Nc1cc2c(cc1[N+](=O)[O-])OCO2 | inactive: 15.8% |
| COc1ccc(NC(=O)Nc2c[nH]c(=O)[nH]c2=O)cc1OC | inactive: -5.7% |
| CSCCC(NC(=O)c1ccc([N+](=O)[O-])cc1Cl)C(=O)OCC(=O)NCCCc1ccccc1 (centres undefined) | inactive: -16% |

| SMILES | growth rescue (activation) |
| --- | --- |
| CCOc1ccccc1-c1noc(CCC(=O)Nc2cccnc2)n1 | inactive: -3.4% |
| CC1(C(=O)NS(=O)(=O)c2ccccc2Cl)CCN1C(=O)CC(c1ccccc1)c1ccccc1 (centres undefined) | inactive: 6.36% |
| CN(CC(=O)Nc1ccc(F)cc1)C(=O)CN1C(=O)NC2(CCCCC2)C1=O | inactive: -3.01% |
| CCOC(=O)C(C)/C(C)=N/NC(=O)c1cc2ccccc2cc1O (centres undefined) | inactive: 43% |
| O=C(CN1CCN(S(=O)(=O)N2CCCCCC2)CC1)Nc1cc(Cl)ccc1Cl | inactive: 14.1% |
| CCc1ccccc1N1C(=O)CN(Cc2cc(OC)c(OC)c(OC)c2)C1=S | inactive: 11.8% |
| COc1ccc(CCN2CC(C(=O)Nc3cccc(C(C)=O)c3)CC2=O)cc1OC (centres undefined) | inactive: 4.79% |
| Cc1cc(C)nc(SCc2ccc(C(=O)N/N=C/c3cccc(O)c3O)cc2)n1 | inactive: -1.36% |
| Cc1ccc(NC(=O)NCCN2CCN(C(=O)Nc3ccc(C)cc3)CC2)cc1 | inactive: -3.51% |
| Cc1ccc(-c2cc(NC=O)c3ncc(-c4cccc(C(=O)N(C)C)c4)n3c2)cc1 | inactive: 16.5% |
| Cc1cc(CNC(=O)C2CCC(=O)N(Cc3cccc(C(F)(F)F)c3)C2)no1 (centres undefined) | inactive: 3.79% |
| O=[N+]([O-])c1ccc(N2CCN(S(=O)(=O)c3ccccc3)CC2)cc1N1CCc2ccccc2C1 | inactive: -0.186% |
| Cc1cccc(N2CCN(C(=O)C3CCN(S(=O)(=O)N4CCOCC4)CC3)CC2C)c1 (centres undefined) | inactive: 5.32% |
| CCOc1ccccc1C(=O)NCC(=O)NCC1CCCCC1 | inactive: -7.19% |
| COc1ccc(C(=O)OCC(=O)c2ccc3c(c2)NC(=O)CO3)cc1S(=O)(=O)N1CCOCC1 | inactive: 9.65% |
| COCc1nnc(NC(=O)c2ccccc2[N+](=O)[O-])s1 | inactive: 7.24% |
| O=c1oc(-c2cccc(S(=O)(=O)N3CCOCC3)c2)nc2ccccc12 | inactive: 3.69% |
| Cc1ccc(C(=O)N2CCN(C(=O)c3ccco3)CC2)cc1NC(=O)c1ccco1 | inactive: 5.41% |
| CC(=O)c1sc(NCc2ccc(C)cc2)nc1C | inactive: -7.06% |
| COc1cccc(CNc2nc(NCC3CC3)nc3ccsc23)c1 | inactive: 13.9% |
| NS(=O)(=O)c1cccc(NC(=O)COC(=O)CSCc2ccccc2)c1 | inactive: -0.997% |
| COc1cc(/C=C/c2ccc3cccc(O)c3n2)cc(Cl)c1OC | inactive: 10.4% |
| O=C(CN1C(=O)CSc2ccc(S(=O)(=O)N3CCCCCC3)cc21)NCCc1ccccc1 | inactive: -2.94% |

| SMILES | growth rescue (activation) |
| --- | --- |
| Cc1ccccc1OCCC(=O)OCC(=O)Nc1cc(S(=O)(=O)N2CCOCC2)ccc1Cl | inactive: 7.08% |
| CCCCC(=O)N(C)c1c(CC)nc2c(OCC(=O)c3ccc(F)cc3)cccn12 | inactive: 11.7% |
| Cc1ccc(S(=O)(=O)Nc2ccc(F)cc2)cc1C(=O)N1CCOCC1 | inactive: 6.18% |
| O=[N+]([O-])c1ccc(-c2csc3[n+]2CCS3)cc1 | inactive: -15.4% |
| c1ccc(CN2CCN(C3=Nc4cccc5cccc3c45)CC2)cc1 | inactive: 10.8% |
| COCCNC(=O)COc1ccc(N(C)S(=O)(=O)c2ccc3ccccc3c2)cc1 | inactive: 11.6% |
| CCC(OC(=O)c1nsc(Cl)c1Cl)C(=O)NCCc1ccccc1 (centres undefined) | inactive: 22.5% |
| CCn1ncc(C2=NOC(C(=O)Nc3cccc(O)c3)C2)c1C (centres undefined) | inactive: 8.37% |
| COc1ccc(/C=N/NC(=O)CCn2c3ccccc3c3ccccc32)cc1OC | inactive: -8.27% |
| O=C(c1ccccc1NS(=O)(=O)c1ccc(Br)cc1)N1CCOCC1 | inactive: -0.277% |
| COC(=O)c1nc(-c2ccccc2)oc1N1CCOCC1 | inactive: 14.5% |
| C=CCNC(=O)COC(=O)/C=C/c1cccs1 | inactive: -13.6% |
| COc1ccc(Nc2cc(C)c3ccccc3n2)cc1 | inactive: 12.7% |
| O=C(NC(=S)NC12CC3CC(CC(C3)C1)C2)c1ccc(F)cc1 | inactive: -4.37% |
| CCC(=O)c1ccc(-c2ccccc2)cc1 | inactive: 30.8% |
| O=C(COc1ccc([N+](=O)[O-])cc1)Nc1ccc(N2CCCC2)cc1 | inactive: 4.68% |
| CS(=O)(=O)Cc1ccc(C(=O)NC2CCN(Cc3ccccc3)C2)cc1 (centres undefined) | inactive: 13.1% |
| Cc1ccc(C)c(N2CCN(C(=O)c3cccn4c(=O)c5sccc5nc34)CC2)c1 | inactive: 20.1% |
| O=C1CCC(=O)N1c1ccc(S(=O)(=O)Nc2cccc(Br)c2)cc1 | inactive: 25.9% |
| CCOc1ccc(NC(=S)N2C3CCCC2CC(NC(=O)C2CC2)C3)cc1 (centres undefined) | inactive: -3.85% |
| Cc1ccc2nc(-c3ccccc3F)c(Nc3ccc(Cl)cc3)n2c1 | inactive: 6.63% |
| c1cnc2c(OCc3cn4cccnc4n3)cccc2c1 | inactive: 4.3% |
| Cc1cc(C(=O)COC(=O)c2cnccn2)c(C)n1-c1ccc(Br)cc1 | inactive: 3.41% |
